Assay results published in patent US12227500B2, “Substituted pyrrolo[2,3-b]pyridines for suppressing toxic endoplasmic reticulum stress” (THE TRUSTEES OF COLUMBIA UNIVERSITY IN THE CITY OF NEW YORK, priority 2018, dated 2025).
Like-named read-outs stand apart in the source and are kept apart here.

Tested on: Hb9::GFP-hSOD1^G93A motor neurons
[1] = 7.5 μM CPA, best time point (24 or 48 hrs post CPA) and concentration tested

c1cc(Nc2cc(C3CC3)[nH]n2)nc(Nc2ccc3nc[nH]c3c2)n1 [APY29]
% rescue of CPA toxicity Cell death [1]: 57.76% | % rescue of CPA toxicity Neurite growth [1]: 107%

Cc1cc(=O)oc2c(C=O)c(O)ccc12 [Compound 4u8C]
% rescue of CPA toxicity Cell death [1]: 9.304% | % rescue of CPA toxicity Neurite growth [1]: −0.004912%

FC(F)(F)c1ccccc1-n1ccnc1 [TRIM]
% rescue of CPA toxicity Cell death [1]: 13.72% | % rescue of CPA toxicity Neurite growth [1]: 53.08%

Cc1cc(C)nc(NS(=O)(=O)c2ccc(NC(=S)NC(=O)COc3ccc(Br)cc3Cl)cc2)n1 [ZCL 278]
% rescue of CPA toxicity Cell death [1]: 3.473% | % rescue of CPA toxicity Neurite growth [1]: 13.44%

C[C@H](CCC(=O)[O-])[C@H]1CC[C@H]2[C@@H]3CC[C@@H]4C[C@H](OS(=O)(=O)[O-])CC[C@]4(C)[C@H]3CC[C@]12C.[Na+].[Na+] [LCA-3-sulfate disodium salt]
% rescue of CPA toxicity Cell death [1]: −2.074% | % rescue of CPA toxicity Neurite growth [1]: 6.127%

C[C@H](CCC(=O)O)[C@H]1CC[C@H]2[C@@H]3CC[C@@H]4C[C@H](O)CC[C@]4(C)[C@H]3CC[C@]12C [LCA]
% rescue of CPA toxicity Cell death [1]: 9.086% | % rescue of CPA toxicity Neurite growth [1]: 22.62%

O=C1CN(/N=C/c2ccc(-c3ccc([N+](=O)[O-])cc3)o2)C(=O)N1 [Dantro, dantrolene]
% rescue of CPA toxicity Cell death [1]: −7.952% | % rescue of CPA toxicity Neurite growth [1]: −9.099%

CC(=O)OCOC(=O)CN(CC(=O)OCOC(C)=O)c1ccccc1OCCOc1ccccc1N(CC(=O)OCOC(C)=O)CC(=O)OCOC(C)=O [BAPTA-am]
% rescue of CPA toxicity Cell death [1]: −22.41% | % rescue of CPA toxicity Neurite growth [1]: −23.86%

C[C@H](CC(=O)O)[C@H]1CC[C@H]2[C@@H]3CC[C@@H]4C[C@H](O)CC[C@]4(C)[C@H]3C[C@H](O)[C@]12C [nor-DCA]
% rescue of CPA toxicity Cell death [1]: 14.57% | % rescue of CPA toxicity Neurite growth [1]: 19.56%

CN([C@@H](Cc1ccc(OS(=O)(=O)c2cccc3cnccc23)cc1)C(=O)N1CCN(c2ccccc2)CC1)S(=O)(=O)c1cccc2cnccc12 [KN-62]
% rescue of CPA toxicity Cell death [1]: 3.13% | % rescue of CPA toxicity Neurite growth [1]: −4.058%

C[C@H](CCC(=O)NCC(=O)O)[C@H]1CC[C@H]2[C@@H]3[C@@H](O)C[C@@H]4C[C@H](O)CC[C@]4(C)[C@H]3CC[C@]12C [GUDCA]
% rescue of CPA toxicity Cell death [1]: 9.971% | % rescue of CPA toxicity Neurite growth [1]: 41.88%

NS(=O)(=O)c1cccc2c1c([N+](=O)[O-])cc1nc(O)c(O)nc12 [NBQX]
% rescue of CPA toxicity Cell death [1]: 1.545% | % rescue of CPA toxicity Neurite growth [1]: 5.666%

O=C1Cc2c([nH]c3ccc(Br)cc23)-c2ccccc2N1 [Kenpaullone]
active concentrations for rescue of motor neurons (7.5 μM CPA, FIG. 19A): 5 to 10 µM

O=C(O)CCCc1ccccc1 [PBA]
% rescue of CPA toxicity Cell death [1]: −41.56% | % rescue of CPA toxicity Neurite growth [1]: −11.71%

C[C@H](CCC(=O)NCCS(=O)(=O)O)[C@H]1CC[C@H]2[C@@H]3[C@H](O)C[C@@H]4C[C@H](O)CC[C@]4(C)[C@H]3CC[C@]12C [TCDCA]
% rescue of CPA toxicity Cell death [1]: 14.29% | % rescue of CPA toxicity Neurite growth [1]: 40.59%

IGF-1: insulin-like growth factor-1
% rescue of CPA toxicity Cell death [1]: 4.009% | % rescue of CPA toxicity Neurite growth [1]: 0.4167%

CN(C)C[C@H]1CCn2c(c(C3=C(c4cn(C)c5ccccc45)C(=O)NC3=O)c3ccccc32)C1 [Ro 32-0432]
% rescue of CPA toxicity Cell death [1]: 69.45% | % rescue of CPA toxicity Neurite growth [1]: 81.4%

Guanabenz acetate salt
% rescue of CPA toxicity Cell death: −5.953% | % rescue of CPA toxicity Neurite growth: −1.699%

N[C@@H](Cc1ccc(O)c(O)c1)C(=O)O [DOPA]
% rescue of CPA toxicity Cell death [1]: 2.064% | % rescue of CPA toxicity Neurite growth [1]: 38.56%

CCCCCCCCCCCCCC(=O)O[C@@H]1[C@@H](C)[C@@]2(O)[C@@H](C=C(CO)C[C@]3(O)C(=O)C(C)=C[C@@H]23)[C@@H]2C(C)(C)[C@]12OC(C)=O [PMA]
% rescue of CPA toxicity Cell death [1]: −5.731% | % rescue of CPA toxicity Neurite growth [1]: 25.5%

CCc1cncnc1N1CCN(Cc2nc3ccc(C(F)(F)F)cc3[nH]2)CC1 [PF-4708671]
% rescue of CPA toxicity Cell death [1]: −11.45% | % rescue of CPA toxicity Neurite growth [1]: −16.5%

C[C@H](CCC(=O)NCC(=O)O)[C@H]1CC[C@H]2[C@@H]3[C@H](O)C[C@@H]4C[C@H](O)CC[C@]4(C)[C@H]3C[C@H](O)[C@]12C [GCA]
% rescue of CPA toxicity Cell death [1]: 23.53% | % rescue of CPA toxicity Neurite growth [1]: 35.88%

CN(C)CCCn1cc(C2=C(c3c[nH]c4ccccc34)C(=O)NC2=O)c2ccccc21 [GF109203X]
% rescue of CPA toxicity Cell death [1]: 27.85% | % rescue of CPA toxicity Neurite growth [1]: 30.94%

COC(=O)CC[C@@H](C)[C@H]1CC[C@H]2[C@@H]3C[C@H](O)[C@@H]4C[C@H](O)CC[C@]4(C)[C@H]3CC[C@]12C [HDCA-Me ester]
% rescue of CPA toxicity Cell death [1]: 7.111% | % rescue of CPA toxicity Neurite growth [1]: 18.93%

O=S(=O)(N=Cc1c(O)ccc2ccccc12)c1cccs1 [STF-083010]
% rescue of CPA toxicity Cell death [1]: 9.976% | % rescue of CPA toxicity Neurite growth [1]: 3.154%

CC(=O)O[C@@H]1[C@@H](OC(C)=O)[C@@H](O)[C@H](Oc2c(-c3ccc(O)cc3)oc3cc(O)cc(O)c3c2=O)O[C@H]1C [SL0101]
% rescue of CPA toxicity Cell death [1]: 28.18% | % rescue of CPA toxicity Neurite growth [1]: 88.94%
